The source gives no read counts; variants with many changes may rest on few reads.

The labels stand for the following.
B1: OR4K15 (parent)
chain: GUUAACGGUCAUAGGCCAUGGAAACUAGGAGCACCAUUUCGCUGCCAGUGAAGAAAUGAACAAAGAAAAUCUGGGCCAGGCAGGCAUCAAAAGAAAUAGUCUUGCGCUCAACCAGAAAGUCUGUAAUCAUUUUAAGGGUA

In this data set the parent is B1. As to the kind of experiment: self-cleavage, relative activity (ratio to wild type); higher = more cleavage; in vitro, sequencing; the parent is a self-cleaving ribozyme.
Turning to A51G A62G A66G, the self-cleavage worked out at 1.2.

In the case of A52G A56G A89G A114G, the self-cleavage is 0.33.

For A52U A67G A94U, the self-cleavage stood at 1.35.

As to A51G A68G U131C, the self-cleavage stood at 1.33.

G53A A111G A116C: the self-cleavage is 0.

With A54G A56G G106C, the self-cleavage was 0.01.

Turning to A52G U103C A134G, the self-cleavage turned out to be 1.67.

With A51G A66G U100A U103C, the self-cleavage was 0.1.

For the variant A51G A55G A60G U70C A96C, the self-cleavage is 0.24.

On to A51G A62G A90G, for which the self-cleavage is 0.64.

Consider A51G U70C G74A, for which the self-cleavage was determined as 0.15.

Regarding A52U A94G U130G, the self-cleavage is 0.89.

Turning to A52G U70A U124C, the self-cleavage worked out at 1.14.

Consider A51G A55U A98G, for which the self-cleavage was 0.63.

With A52G U70A A117C, the self-cleavage was 0.16.

Turning to A51G A55G A64G C76G A126G, the self-cleavage amounted to 0.03.

Turning to A52G A60G A62G A82G A94G, the self-cleavage amounted to 0.32.

As for A52G A62U A89G U108C, the self-cleavage was 0.03.

As for A52G A69G A134G, the self-cleavage was 1.02.

As for A51G A94G G99A G115A, the self-cleavage is 0.02.

Consider A51U A54G A69G U122C A140G, for which the self-cleavage was 1.15.

With A54C A64G U97A, the self-cleavage was 0.75.

With A52G A78G A116G, the self-cleavage was found to be 0.17.

With A52G A78G A117G, the self-cleavage came to 0.25.

A52G A54G U102C A116U: the self-cleavage is 0.18.

For A52C A67G A95G, the self-cleavage came out at 1.87.

In the case of A52G G58U U108A A126G A140G, the self-cleavage amounted to 0.01.

Regarding A52G A82G A118G, the self-cleavage was determined as 0.21.

On to A51G U72A A135G, for which the self-cleavage came out at 0.18.

Turning to A52G A82U U102A U131C U132C, the self-cleavage was 0.27.

As for A51G U87C U124C, the self-cleavage is 0.88.

A51G A59G A92G A116G U122C: the self-cleavage is 0.51.

Consider A54G A56G U130C, for which the self-cleavage was 2.03.

Take A51G A68G U70A A96G C121A U124C: the self-cleavage worked out at 0.84.

As for A52G A54G A68G G73U A125G, the self-cleavage worked out at 0.04.

For the variant A51U A64G A94G A117U, the self-cleavage was 0.94.

A52G U97C G115A: the self-cleavage stood at 0.03.

Regarding A52G A59G A91G U122C, the self-cleavage worked out at 0.92.

For the variant A52G U72C U120C, the self-cleavage came to 0.12.

Take A51G A64G U102A U103C A111G U130A: the self-cleavage worked out at 0.01.

Regarding A51G A59G A68G, the self-cleavage was 1.51.

In the case of A51G U70C U103C, the self-cleavage turned out to be 0.1.

For A52G A86C U87C A90G U108C, the self-cleavage amounted to 0.01.

Take A51U U108C U127C: the self-cleavage was found to be 0.01.

In the case of A51G A94G A98G U102C, the self-cleavage was found to be 1.07.

Turning to A51G A64U A110G U139A, the self-cleavage stood at 0.1.

For the variant A51G A52U A135G, the self-cleavage was 0.52.

Consider A52G U70C A90G A118G, for which the self-cleavage was found to be 0.25.

Take A52U A54G A125C: the self-cleavage came out at 0.56.

Turning to A51G A56G A129U, the self-cleavage turned out to be 1.51.

Take A51G A60G A68G A78U: the self-cleavage amounted to 0.47.

A54G A55G A118G U132C: the self-cleavage worked out at 1.24.

Take A51U U122A U130G: the self-cleavage turned out to be 1.12.

For A51U A82U G136A, the self-cleavage was determined as 0.12.

A52G A64G U120C A125G: the self-cleavage was 0.25.

On to A52G U57A A64G C107U, for which the self-cleavage is 0.03.

Take A52G U87C U131C: the self-cleavage came out at 1.53.

As for A51U U70A A94G, the self-cleavage turned out to be 1.05.

Consider A52G A60U A89G, for which the self-cleavage was found to be 1.46.

On to A51G A59U A95G C107U A114U, for which the self-cleavage is 0.03.

Take A54C A69U A90U: the self-cleavage was 2.25.

For the variant A51G G79A A89G U122A, the self-cleavage came out at 0.06.

On to A51G U100C A118G, for which the self-cleavage was determined as 1.43.

As to A51U A56G A110G A135G, the self-cleavage was determined as 0.18.

Take A51G A69G U130C: the self-cleavage came to 1.67.

Take A52G A63G U87C A92G A126U: the self-cleavage came to 0.92.

Consider A51U A86U U124A, for which the self-cleavage came out at 1.52.

With A51U A68U A90G, the self-cleavage amounted to 1.17.

On to A51U A54G A114G, for which the self-cleavage came to 0.8.

As for A52U A90G U130C U132A, the self-cleavage is 0.48.

For the variant A51G A54G A92G, the self-cleavage was 0.98.

On to A52G A66G A82U A117G U124C, for which the self-cleavage came to 0.12.

Regarding A51U U130C A140U, the self-cleavage came out at 1.4.

A51G U57A A67G A126G U130C: the self-cleavage worked out at 0.37.

Turning to A51G A86U U97C A126G, the self-cleavage came out at 1.36.

Consider A52G A69G A94G U108C, for which the self-cleavage worked out at 0.01.

On to A54G A56G A67G U100C, for which the self-cleavage is 1.47.

In the case of A51G A78G A126G, the self-cleavage is 0.25.

As to A52G A59U A117G, the self-cleavage was found to be 2.12.

Take A51U A56G A129G: the self-cleavage was 1.01.

Take A51G A68G A89G U131C: the self-cleavage amounted to 1.03.

With A52U A59G U127C, the self-cleavage turned out to be 0.42.

With A51G U100A C107U, the self-cleavage was 0.01.

As for A51U A60G A66G A69G, the self-cleavage was found to be 1.03.

Consider A51U G99U A114G, for which the self-cleavage was 0.06.

As to A51G A59G U108C, the self-cleavage is 0.04.

Regarding A51U A95G A118G A140U, the self-cleavage was 1.22.

In the case of A52G A91G A117G, the self-cleavage turned out to be 1.76.

With G50U A116G U122C, the self-cleavage was determined as 0.7.

Regarding A51G A69G A78G, the self-cleavage was 0.13.

As for A54C A67G G84A A94U A129C, the self-cleavage is 2.24.

With A52G A68G A89G A90G A92G U100C, the self-cleavage came out at 1.54.

Take A51G A82U A94G: the self-cleavage turned out to be 0.23.

Turning to G53A A94G C113U, the self-cleavage amounted to 0.22.

Take A51G A52G A69G: the self-cleavage was found to be 0.98.

Turning to A52U G73A A92G U102C, the self-cleavage turned out to be 0.27.

Turning to A51G A56G C113G A126G, the self-cleavage amounted to 0.01.

On to A52G A67G U132C, for which the self-cleavage was 1.78.

Regarding A51G A55G A92G A94G U102C A114U A118G, the self-cleavage was determined as 0.01.

Regarding A51G G79A A90G U108C U122A U132C, the self-cleavage was 0.

Regarding A51U A89G U103C, the self-cleavage stood at 0.42.

As for A52G A66G A94U A114G U130C, the self-cleavage is 0.1.

With A51G G106A U122C U131C, the self-cleavage is 0.

A52G A90C U131C: the self-cleavage was found to be 1.34.

Turning to A51U A78G A110U, the self-cleavage is 0.38.

In the case of A52G U100G C101A C109U, the self-cleavage was found to be 0.02.

Regarding A52G A69G A129U, the self-cleavage was found to be 1.66.

A52G A54U A68G U108G U120C: the self-cleavage was determined as 0.02.

Take A52G A62U G79A: the self-cleavage is 0.18.

On to A52U G65A A68G A78U U100C, for which the self-cleavage turned out to be 0.61.

A52G A55G U102C: the self-cleavage was 2.94.

Turning to A52G U131C U132C, the self-cleavage is 1.53.

As for A51U A55G A69G U100C, the self-cleavage was found to be 1.22.

Regarding A52U C105U G119C, the self-cleavage was found to be 0.17.

With A52G C107U A135G, the self-cleavage turned out to be 0.06.

Turning to A51U A54G U72C, the self-cleavage came to 0.28.

With A52G A78G A111G, the self-cleavage came out at 0.01.

For the variant A52U A94G A95G, the self-cleavage was found to be 2.05.

In the case of A51G C61U A62G U87A A95U A118G, the self-cleavage came to 1.31.

Take A51G G79A U100A: the self-cleavage was determined as 0.07.

For A51G A66G A67G A91G, the self-cleavage is 1.49.

For the variant A51G A82G U120C, the self-cleavage came out at 0.84.

In the case of A51G A54U A67G U103A A111G, the self-cleavage turned out to be 0.02.

A51G A59C A95G: the self-cleavage is 1.88.

For the variant A52G A56G A82G U122G, the self-cleavage is 0.88.

Turning to A52G A56G A118G U130C, the self-cleavage was 1.08.

For A51G A64G A96G, the self-cleavage came out at 1.79.

Consider A52G A54G U57A A95G A117G U122G, for which the self-cleavage was found to be 2.57.

In the case of A51G A60C A98U A117G, the self-cleavage was 2.

A54G A55G A56G A89U U130C: the self-cleavage is 0.78.

Take A52G A64G A140U: the self-cleavage was 1.18.

For the variant A52G A110U A118G, the self-cleavage was 1.5.

Regarding A51G A52G A90G, the self-cleavage is 0.81.

In the case of A51U A117G U120C, the self-cleavage stood at 0.87.

Turning to A52G A59G U127C, the self-cleavage was found to be 1.51.

On to A51U A59U A94U U103C, for which the self-cleavage came out at 1.31.

As for A52G A64G A82G A89G, the self-cleavage was found to be 1.05.

On to A51G A56G U127C, for which the self-cleavage was found to be 0.7.

As to A52G A56C U108C, the self-cleavage amounted to 0.01.

For A52G U57A A67G A135G, the self-cleavage came out at 1.81.

A51U A69G U72C A134G: the self-cleavage was found to be 0.24.

For A54G A55U A63G, the self-cleavage is 0.67.

Regarding A52U A59G A68G U87C U100G, the self-cleavage came out at 1.76.

With A52G A82G A89U U122C, the self-cleavage is 0.59.

Consider G53A A67G A94G, for which the self-cleavage was 1.39.

With A54C A78G A82C, the self-cleavage is 0.24.

As to A52G A59C U72C, the self-cleavage was determined as 0.15.

With A52G A82U A135G, the self-cleavage worked out at 0.22.

Consider A52G U87C A126G U127C, for which the self-cleavage was found to be 1.42.

For the variant G53A G58A A118U A135G, the self-cleavage stood at 0.41.

For A52G A111G A114U, the self-cleavage is 0.04.

In the case of A52G A64G A78U, the self-cleavage came out at 0.37.

As for G50U A56G U87C A125G U130C, the self-cleavage is 0.76.

Regarding A52G A92G A118U, the self-cleavage amounted to 0.51.

For A51G G65A U72C A86G, the self-cleavage was found to be 0.31.

For A54G A56G A68G, the self-cleavage is 1.21.

Turning to A52G A126G A129U, the self-cleavage worked out at 0.79.

In the case of A52G U70C U120C U122C, the self-cleavage was determined as 0.18.

As to A54G A56G A96U, the self-cleavage stood at 1.46.

Regarding A51U G65A A89G A94G U122C A126G, the self-cleavage was 0.82.

Consider A52G A55G U70C A82G, for which the self-cleavage is 0.36.

A51U A78G A89G: the self-cleavage worked out at 0.15.

Take A51G U102A U132C: the self-cleavage came out at 0.72.

For A51G A86U U102C, the self-cleavage is 2.23.

With A51G A82G A86U A96G A114G, the self-cleavage was 0.22.

Consider A51G G80A U120C U122C, for which the self-cleavage came out at 0.06.

Consider A52G U103A U127C, for which the self-cleavage was 0.6.

These data come from the RNAGym collection of RNA variant scans (doi:10.7554/elife.90254).
